Data: the antibiotic and cytotoxicity screens of Wong et al. (2023)
Some of the results follow.

What follows are compounds tested on HepG2 (assay: cytotoxicity call (relative viability < 0.9)). Settings: 10 µM.

| SMILES | cytotoxicity call |
| --- | --- |
| C[C@@H]1CCCCO[C@@H](CN(C)C(=O)Nc2ccc3c(c2)OCO3)[C@H](C)CN([C@@H](C)CO)C(=O)c2cc(NC(=O)C3CCCCC3)ccc2O1 | inactive |
| C[C@@H]1CN([C@H](C)CO)C(=O)Cc2cc(NC(=O)Nc3ccc4c(c3)OCO4)ccc2O[C@H]1CN(C)Cc1ccc(Cl)c(Cl)c1 | inactive |
| COc1ccc2c3c(n(c2c1)C)[C@H](CO)N(C[C@]13CN(C1)C(=O)c1ccncc1)C(=O)C1CCOCC1 | inactive |
| COc1ccc(S(=O)(=O)Nc2ccc3c(c2)[C@@H]2C[C@@H](CC(=O)NCC4CC4)O[C@H](CO)[C@@H]2O3)cc1 | inactive |
| C[C@H](CO)N1C[C@H](C)[C@H](CN(C)C(=O)[C@H](C)c2ccccc2)OCc2ccccc2-c2c(n(C)c3ccccc23)C1=O | active |
| CNC(CC(C)C)C(=O)NC1C(=O)NC(CC(N)=O)C(=O)NC2C(=O)NC3C(=O)NC(C(=O)NC(C(=O)O)c4cc(O)cc(O)c4-c4cc3ccc4O)C(O)c3ccc(c(Cl)c3)Oc3cc2cc(c3OC2OC(CO)C(O)C(O)C2OC2CC(C)(N)C(O)C(C)O2)Oc2ccc(cc2Cl)C1O.Cl (stereo not given) | inactive |
| Cc1ccc(S(=O)(=O)Nc2ccc3c(c2)CC(=O)N([C@@H](C)CO)C[C@@H](C)[C@@H](CN(C)C(=O)Nc2ccc(C(F)(F)F)cc2)O3)cc1 | inactive |
| Cc1cc(C(=O)Nc2cccc3c2O[C@@H](CN(C)Cc2ccc4c(c2)OCO4)[C@H](C)CN([C@@H](C)CO)C3=O)n(C)n1 | inactive |
| COc1ccc2c3c([nH]c2c1)[C@H](CO)N(C[C@]13CN(C)C1)C(=O)CN1CCOCC1 | inactive |
| C[C@@H]1CN([C@H](C)CO)C(=O)c2cc(NC(=O)CCCCCC(=O)Nc3ccccc3N)ccc2O[C@H]1CN(C)C(=O)Nc1ccc(F)cc1 | inactive |
| Nc1nc(=O)n([C@@H]2O[C@H](CO)[C@@H](O)[C@H]2O)cc1CO | inactive |
| C[C@@H]1CCCCO[C@H](CN(C)Cc2ccc(C(F)(F)F)cc2)[C@H](C)CN([C@H](C)CO)C(=O)c2cc(NS(=O)(=O)c3cccs3)ccc2O1 | active |
| C[N+](C)(C)CCCCNC(=O)[C@H]1C[C@H]2C(=O)N[C@@H](CCCC[N+](C)(C)C)C(=O)N2[C@H]1c1cccc(OCCO)c1 | inactive |
| O=C1NC(=S)NC12CCCCC2 | inactive |
| C[C@H](CO)N1C[C@H](C)[C@H](CN(C)Cc2ccncc2)OCCCC[C@H](C)Oc2ccc(NC(=O)NC3CCCCC3)cc2C1=O | inactive |
| C[C@@H]1CN([C@@H](C)CO)C(=O)Cc2cc(NC(=O)CCN3CCOCC3)ccc2O[C@H]1CN(C)Cc1ccc(C(=O)O)cc1 | inactive |
| CCN1[C@@H]2c3ccc(-c4ccncc4)c(=O)n3C[C@@H]2[C@@H](CO)[C@@H]1C(=O)NCCc1cn(C)cn1 | inactive |
| C[C@@H]1CN([C@@H](C)CO)C(=O)c2ccccc2-c2ccccc2CO[C@@H]1CN(C)C(=O)N[C@H](C)c1ccccc1 | inactive |
| C[C@@H]1CN([C@@H](C)CO)C(=O)c2cc(/C=C/c3ccccc3)cnc2O[C@@H]1CN(C)C(=O)C1CCOCC1 | inactive |
| C[C@@H]1CN([C@@H](C)CO)C(=O)Cc2cc(NC(=O)Nc3ccc(F)cc3)ccc2O[C@@H]1CN(C)Cc1ccc(Cl)c(Cl)c1 | active |

| SMILES | cytotoxicity call |
| --- | --- |
| C[C@H](CO)N1C[C@H](C)[C@@H](CN(C)C(=O)Cc2ccccn2)Oc2ncc(-c3cccc(C(=O)N(C)C)c3)cc2C1=O | inactive |
| CCCN(C)C[C@@H]1OCCCC[C@H](C)Oc2ccc(NS(C)(=O)=O)cc2C(=O)N([C@@H](C)CO)C[C@H]1C | inactive |
| C[C@H]1CCCCO[C@@H](CN(C)CC2CCCCC2)[C@@H](C)CN([C@@H](C)CO)C(=O)c2cc(NC(=O)c3ccncc3)ccc2O1 | inactive |
| Cc1ccc(S(=O)(=O)N(C)C[C@@H]2OCCCC[C@H](C)Oc3ccc(NC(=O)Nc4ccccc4)cc3C(=O)N([C@H](C)CO)C[C@H]2C)cc1 | inactive |
| CN(Cc1ccc(C(C)(C)C)cc1)Cc1cccc2ccccc12.Cl | inactive |
| CN1C[C@@H](CO)Oc2ccccc21 | inactive |
| CC(C)Cc1cc(CN)on1 | inactive |
| C[C@@H]1CN([C@H](C)CO)C(=O)c2ccccc2-c2ccccc2CO[C@H]1CN(C)C(=O)Nc1cccc(C(F)(F)F)c1 | inactive |
| C[C@H](CO)N1C[C@H](C)[C@@H](CN(C)S(=O)(=O)c2ccc(F)cc2)Oc2ccc(NS(C)(=O)=O)cc2CC1=O | inactive |
| C[C@H](CO)N1C[C@H](C)[C@@H](CN(C)Cc2ccc(Cl)c(Cl)c2)OCCCC[C@H](C)Oc2ccc(NC(=O)Nc3cccc4ccccc34)cc2C1=O | inactive |
| C[C@H](CO)N1C[C@H](C)[C@@H](CN(C)S(=O)(=O)c2ccc(Oc3ccccc3)cc2)OCc2cnnn2CCCC1=O | inactive |
| Cc1ccc(S(=O)(=O)N(C)C[C@@H]2Oc3ccc(NC(=O)c4ccncc4)cc3C(=O)N([C@H](C)CO)C[C@H]2C)cc1 | inactive |
| O=[N+]([O-])c1ccc(/C=C/CN(C/C=C/c2ccc([N+](=O)[O-])cc2)CCCCNS(=O)(=O)c2cccc3cnccc23)cc1 | inactive |
| CCC(=O)Nc1ccc2c(c1)OC[C@@H](C)N(S(=O)(=O)c1cn(C)cn1)C[C@@H](C)[C@H](OC)CN(C)C2=O | inactive |
| CC1(C)S[C@H]2[C@@H](NC(=O)[C@@H](N)c3ccccc3)C(=O)N2[C@@H]1C(=O)O | active |
| COc1ccc(COC[C@]23N=C4SCc5ccccc5C(=O)N4[C@H](c4ccccc4O2)[C@H]3CO[Si](C)(C)C(C)(C)C)cc1 | inactive |
| C[C@@H]1CN([C@H](C)CO)C(=O)c2cccc(NC(=O)c3cnccn3)c2O[C@H]1CN(C)Cc1ccc2c(c1)OCO2 | inactive |
| C[C@@H]1CCCCO[C@@H](CN(C)S(=O)(=O)c2ccc(F)cc2)[C@@H](C)CN([C@H](C)CO)C(=O)c2cc(NC(=O)Nc3ccc(F)cc3)ccc2O1 | inactive |
| CCCC(=O)Nc1ccc2c(c1)OC[C@@H](C)N(Cc1ccc(-c3ccccn3)cc1)C[C@H](C)[C@H](OC)CN(C)C2=O | inactive |
| C[C@@H]1CN([C@H](C)CO)C(=O)c2cc(NC(=O)NC3CCCCC3)ccc2O[C@@H](C)CCCCO[C@@H]1CN(C)C(=O)CCC(F)(F)F | inactive |
